# Some compounds were tested as several samples or in several runs, with calls that do not always agree.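 Assay: single dose, 48 h. Readout: percent growth (0 = no net growth; negative = cell death). Active: <10.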 Some entries of the source have several records that differ or are many. They are shown here; other results are not. There may be further records. The screen tested this drug many times, at the concentration stated with the values; one value stands for one run. Marks such as (2×) say how often a value occurs here.
# Columns and labels:
# NCI-H23 lung = assay: NCI-60 one-dose screen, 48 h (100 = growth as untreated, 0 = no growth, -100 = all killed); conditions: 2.5 mM
# NCI-H226 lung = assay: as above; conditions: 2.5 mM
structure (smiles),measurement,setting,value
O=c1[nH]cc(F)c(=O)[nH]1,growth,NCI-H23 lung; runs of 1991,"active: -9.18, -18.1, -9.76, -10.1, -0.655% and inactive: 27, 17.9 (2×), 12.9, 41.9, 10.5, 24.4, 39.2, 19.6, 33, 13.9, 14.9, 16, 22.8%"
same,growth,NCI-H23 lung; runs of 1992,"inactive: 16.4 (2×), 20.7 (2×), 29.2, 24.1, 22.7, 33.5, 25.4, 16.8 (3×), 33.3, 18.8, 29, 23.5, 20.9 (3×), 16.3 (2×), 19.8, 16.7 (2×), 19.9 (2×), 13.3, 21.6, 23.3 (2×), 14.7, 42.9, 17.5 (3×), 22.6, 18.2, 19.4, 10.9, 14.5, 12.7, 24.6, 36, 28.4, 11.4, 14.8 (2×), 93.9, 13, 42, 17.3, 27.4, 27, 13.8 (2×), 39.6, 19, 22.4, 27.8, 15, 23.7, 16.1, 20.8, 11.9, 18.6, 15.6, 10.1, 34.4, 32.2, 16.6, 24.8 (2×), 17.1, 10.3, 22.3, 19.2, 26.1, 31.6, 17.2, 19.1% and active: 8.38, -30.1, -8.86, 0.277, -5.17, 4.12, -4.96, -26.6, 6.93, 7.72, 6.58, -9.69, -25.9, 8.29, -32.2, -7.07, 5.64, -21.8, -20.3, -24.7, 6.8, 9.41, -42.2, -36.6, 1.48, 5.89, 1.82, -10, 7.6, -22 (2×), 1.07, -7.28, 3.43, -24.3, -30, -26.1, 3.58, -20, 9.77, 6.42, -27.6, 0.645, 5.81, -15.6%"
same,growth,NCI-H23 lung; runs of 1993,"active: 5.1, 9.57, -9.52, -7.88, -19.4, -18, 3.96, 6.64, 3.66, -7.01% and inactive: 18, 28, 15.1, 76.5, 40.3, 10.1, 15.8, 21.4 (2×), 14.3, 23.4, 25.6 (2×), 24.1, 30.9, 25.9 (2×), 14.9, 13.6, 21.7, 27.5, 34.3, 26.3, 23.3, 20.5, 55.1, 20.9, 68.4, 31.1, 22.6, 73.8, 39.6, 40.2, 34.8, 16.4, 29.1, 12.9, 27.2, 36.5, 35.7%"
same,growth,NCI-H23 lung; runs of 1994,"inactive: 41.1, 31.9, 31.1, 37.6, 28.1, 26.7, 12.3, 17.6, 17.3, 24.5, 24, 27.6, 24.4, 27, 48.7, 30.7, 51.3, 28.6, 24.9, 10.9, 38.7, 36.3, 14.8, 35.4, 27.8, 24.2, 26.8, 28.5% and active: 7.26, 6.92, 8.28, 8.32, 9.24%"
same,growth,NCI-H23 lung; runs of 1995,"inactive: 63.2, 30.5, 17.3, 24, 12, 25.2, 34.2, 47.7, 42, 33.5, 26.1, 34.3, 15.5, 27.2, 11.4, 17.8, 11.3, 24.3, 26.4, 18.1, 26.9, 22.7, 36.2, 21.3, 25.9, 16, 30, 23.4, 32.6, 22.4, 21.1% and active: 0, -2.47, 0.49, 0.0676, -8.71, 5.62, -19.1, 0.133, -9.87%"
same,growth,NCI-H23 lung; runs of 1996,"inactive: 34.6, 12.4, 22.5, 29.8, 16.3, 25.3, 21.5, 36.2, 11.3, 17.3, 15.1 (2×), 17.6, 32.8, 32.2, 16.4, 14.2, 23.4 (2×), 28.6, 10.3, 10.5, 34.5, 28.1, 27.7, 33.6, 29.7, 20.7, 25.7, 37.5, 32.1, 17.8, 37.1, 15, 13.5, 18.5, 19.9, 50.1, 37.7, 17.4, 14.5, 32, 31.3, 13.1, 11.6, 23.3, 16.9% and active: -11.3, 7.99, 9.93, 7.73, -2.58, -40.5, 7.38, 2, 9.66, 9.75%"
same,growth,NCI-H23 lung; runs of 1997,"inactive: 19, 21.2, 24.4, 12, 38.4, 32.3, 13.8, 18, 24.8, 19.4, 11.6, 26.4, 23.6, 44.2, 20.7, 44, 19.2, 25.2, 17.6, 24.5, 12.9, 33.5, 23.4, 18.2, 26.7, 22.8, 20, 23.2, 15.9, 18.8, 27.1, 24.2, 40.5, 33.1, 20.4, 23, 15.5% and active: 2.32, -29.1, -15.4, -3.58, -5.11%"
same,growth,NCI-H23 lung; runs of 1998,"inactive: 22.4 (2×), 14.4, 34.5, 22.3, 29.9, 22.2, 30.7, 25.3, 16 (2×), 22.9 (2×), 40.5, 12.9, 30.9, 22.6 (2×), 19.7, 32.9, 20.7, 31.3, 17.7, 58.7% and active: 9.6%, -25.6%, -2.78%"
same,growth,NCI-H23 lung; runs of 1999,"inactive: 26.5%, 14%, 18.4% and active: -19.2, 9.8, -1.71, -68, -41.2, -50, 5.88, 8.47, -53.4, -42.3, -30.7, -29.6%"
same,growth,NCI-H23 lung; runs of 2000,"active: -25.2, 8.86, -46.5, -0.481%"
same,growth,NCI-H226 lung; runs of 1991,"active: 6.47, -13.1, -8.27, 9.04% and inactive: 51.5, 34.3, 37.2, 44.6, 37.3, 28.6, 39.1, 40.5, 39.5, 41.4, 38.4, 23.1, 17.9, 48.7, 29.2%"
same,growth,NCI-H226 lung; runs of 1992,"inactive: 45.2, 43.4, 60.8, 25.7, 23.6, 31.1, 61.5, 24.2 (2×), 29.2, 40.2, 45.6, 23.1, 36, 46.8, 16, 49.5, 45.4, 39.5 (3×), 46, 41.3, 54.4, 12.6, 16.9, 15.8, 23.9, 45.7, 20.9, 53.9, 26, 26.4, 39.7, 33.1, 38.4, 12.5, 19.6, 95.4, 65.1, 25.3, 103, 30, 17, 44.8, 18.3, 44.5, 62.2, 41.2, 38.2 (2×), 29.8, 33.8, 24.3, 59.3, 32.6, 22.2, 33.3, 23.3, 16.1, 38.8, 31.5, 39.2, 16.3, 41, 44.9, 76.3, 31.7% and active: -7.83, 6.3, -2.02, -9.44, -12.9, -0.5, -7.64, -5.45, -2, -5.85, 4.37, -4.13, -19.9, -21.4, 9.78, -14.2, -23.8, -37.5, -24.7, -13.5, -47.6, -9.99, -11.8, -11 (2×), -21, -2.05, 5.79, 3.73, -46.2, -8.38, -1.99, -4.22, 3.04, -7.11, -10.6%"
same,growth,NCI-H226 lung; runs of 1993,"inactive: 58.1, 50.6, 63.5, 92, 36.7, 78.8, 54.5 (2×), 60, 50.2, 35.3, 72.2, 44.2, 37.9, 35.8, 50, 47.1, 33.9, 22.6, 47.7, 43.5, 58, 35.4, 29.9, 48.4, 65.5, 63, 68.1, 75, 11.4, 33.5, 35, 39.7, 58.8, 59.3, 61.4, 10.6, 86% and active: -7.27, -12.7, 1.89, -3.74, 3.97, 6.44%"
same,growth,NCI-H226 lung; runs of 1994,"inactive: 51.5, 45.8, 32.3, 10.9, 34.5, 12.4, 14.9, 37, 50.3, 48.3, 28.5, 45.2, 30.9, 48.8, 61.5, 58.6, 81, 34.6, 28.8, 28.3, 21.3, 11.5, 41.8, 74.8, 57.8, 29.1, 14, 56.8, 30% and active: -1.7, 4.6, 4.86, 8.37%"
same,growth,NCI-H226 lung; runs of 1995,"inactive: 42.1, 37.9, 40.6, 48.4 (2×), 35.6, 21.1, 59.5, 24.1, 31.2, 26.7, 21.5, 19.1, 26.2, 30.8, 42.3, 35, 39.3, 59.7, 24.5, 28.7, 33.7, 19.9, 38.4, 87.2, 12, 21.2, 33, 51.8% and active: 4.26, 7.43, 6.51, 4.09, -0.614%"

# Source: PubChem BioAssay (NCI)
